Assay results: PubChem BioAssay AID2451 (National Center for Advancing Translational Sciences (NCATS), 2010)
Values joined by “and” are separate entries in the source; they are usually repeats but may differ in a detail not shown here. Identical values can stand only once. The campaign covered roughly 290,000 compounds. About 2,100 (0.72%) were called active. The inconclusive results got no clear call from the source; some entries with a clear call stand among them for comparison. The call rests on the fitted dose curve; in most records, active means well fitted inhibition curve with a large enough effect; inconclusive means small, poorly fitted or top-dose-only effect, or effect the other way; inactive means flat fitted curve, though single readings scatter. Potencies beside an inconclusive call are fits to weak or partial responses and may not hold up.

Biological target: Fructose-bisphosphate aldolase (Giardia intestinalis (strain ATCC 50803 / WB clone C6)) (UniProt A8B2U2)
UniProt A8B2U2, sequence (A8B2U2 whole entry, looked up): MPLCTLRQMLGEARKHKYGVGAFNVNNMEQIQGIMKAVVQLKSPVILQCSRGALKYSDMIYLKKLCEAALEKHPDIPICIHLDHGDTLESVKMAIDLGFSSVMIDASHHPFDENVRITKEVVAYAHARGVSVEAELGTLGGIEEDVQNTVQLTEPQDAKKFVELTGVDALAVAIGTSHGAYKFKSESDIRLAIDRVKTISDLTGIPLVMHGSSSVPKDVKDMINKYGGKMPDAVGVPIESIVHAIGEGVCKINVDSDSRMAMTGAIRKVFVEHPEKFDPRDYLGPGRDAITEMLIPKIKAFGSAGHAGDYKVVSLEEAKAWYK
Assay: qHTS Assay for Inhibitors of Fructose-1,6-bisphosphate Aldolase from Giardia Lamblia; further: nearly all actives have a fitted effect of over 55% in size
Conditions: purified Giardia FBPA; activity, negative = inhibition: at 59.6 µM (top of the series) unless noted
Procedure, shortened: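 Giardia FBPA (40 nM reagent) was preincubated 10 min at RT with compound (up to 57.5 uM final), then substrate plus GAPDH/TPI/NAD/arsenate coupling system with diaphorase/resazurin was added; resorufin fluorescence (525/598 nm) was read after 20 min.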
On the % scale 0 is the no-effect control and ±100 the full control effect; potency means the concentration at half of the fitted maximal effect; tags describe the fitted curve by direction and shape.

Row | Structure (SMILES) | activity, negative = inhibition | Potency
1 | CCn1c(=O)c2sccc2n(Cc2cccc(C)c2)c1=O | inactive: -0.99% | –
2 | COc1ccc(CN(C)CC(=O)NC(C)c2ccccc2)c(OC)c1 (stereo not given) | – | inconclusive: 28.1 µM [inhibitor, partial curve]
3 | Cc1ccccc1-c1nc2ccccc2c(=O)n1/N=C/c1ccccc1[N+](=O)[O-] | – | active: 4.46 µM
4 | CCOc1ccc(C2OC34CCCCC3C(C#N)(C#N)C2(C#N)C(=N)O4)cc1OC (stereo not given) | – | inconclusive: 22.3 µM [inhibitor, partial curve]
5 | CC(C)Sc1cc(Cl)nc(NC(=O)Nc2ccccc2)n1 | inactive: 5.14% | –
6 | CC(C)CC(=O)N1CCN(Cc2cccc(F)c2)CC1 | – | inconclusive: 17.7 µM [inhibitor, partial curve]
7 | Cc1cc(C)c(S(=O)(=O)Nc2ccc[nH]c2=O)c(C)c1 | – | active: 5.61 µM
8 | Clc1nccnc1N/N=C/c1ccc(Br)cc1 | – | inconclusive: 20 µM [inhibitor, partial curve]
9 | CCC1CC=CC2C1C(=O)N(Cc1ccccc1)C2c1ccoc1 (stereo not given) | inactive: -15.2% | –
10 | S=c1[nH]nc(-c2ccccc2)n1/N=C/c1ccc(Cl)cc1 | – | inconclusive: 20 µM [activator, partial curve]
11 | Clc1ccc(-c2ccc(CNCc3ccccn3)o2)cc1 | – | inconclusive: 22.4 µM [activator, partial curve]
12 | CC(=O)c1sc2nc(-c3ccco3)ccc2c1N | – | inconclusive: 14.1 µM [inhibitor, partial curve]
13 | Cc1cccc(N2CCN(C(=O)c3cc4c(=O)n(C)c5ccccc5c4n3C)CC2C)c1 (stereo not given) | – | inconclusive: 17.7 µM [inhibitor, single point]
14 | CC(=O)C1=C(C)NC(SCC(=O)c2ccc(C)cc2)=C(C#N)C1c1ccco1 (stereo not given) | – | inconclusive: 15.8 µM [inhibitor, partial curve]
15 | CC1CN2C(c3ccc(Cl)cc3)=CSC2=N1 (stereo not given) | – | inconclusive: 25.1 µM [inhibitor, partial curve]
16 | O=[N+]([O-])c1ccc2nc(/C=C/c3ccc(Cl)cc3)[nH]c2c1 | – | inconclusive: 14.1 µM [inhibitor, single point]
17 | Cc1nnc(NN)n(N)c1=O | – | inconclusive: 17.7 µM [inhibitor, single point]
18 | CCOC(=O)C1=C(C)OC(N)=C(C#N)C1c1cc2c(cc1[N+](=O)[O-])OCO2 (stereo not given) | – | inconclusive: 12.6 µM [inhibitor, partial curve]
19 | CCCC(=O)Nc1cc(OC)c(NC(=O)NC2CCCCC2)cc1OC | – | inconclusive: 6.29 µM [inhibitor, full curve]
20 | Cc1cc(N/N=C(/CCC(=O)O)C(=O)O)nc2ccccc12 | – | active: 15.8 µM
21 | CCOC(=O)N1CCN(C(=O)CSc2nnc(-c3cccc(OC)c3)o2)CC1 | inactive: 13.2% | –
22 | Cc1ccc(C(=O)c2c(C)oc3c2C(=O)C(=O)c2ccccc2-3)cc1 | – | active: 0.63 µM
23 | COc1cccc(C2C3=C(N=c4s/c(=C\c5ccc(O)cc5)c(=O)n42)c2ccccc2CC3)c1OC (stereo not given) | inactive: 1.15% | –
24 | COc1cc(C(=O)NC(=S)N2C[C@H]3C[C@H](C2)c2cccc(=O)n2C3)cc(OC)c1OC | – | active: 11.2 µM

Row | Structure (SMILES) | activity, negative = inhibition | Potency
25 | CN1CCN(CC(=O)Nc2ccccc2C(F)(F)F)CC1 | – | inconclusive: 15.8 µM [inhibitor, partial curve]
26 | COC(=O)c1cc(=O)c2c(C)nc(C(Cl)(Cl)Cl)nc2[nH]1 | – | active: 19.9 µM
27 | CS(=O)(=O)N(CC(=O)Nc1ccccc1Sc1ccccc1)c1cccc(Br)c1 | inactive: -5.69% | –
28 | CCn1nnc(NC(=S)NC(=O)c2ccc(-c3cccc(Cl)c3)o2)n1 | – | inconclusive: 5.61 µM [inhibitor, single point]
29 | C=CCn1c(SCC(=O)N2CCOCC2)nc2scc(-c3ccco3)c2c1=O | – | inconclusive: 19.9 µM [inhibitor, single point]
30 | O=C(N/N=C\c1cc([N+](=O)[O-])ccc1N1CCOCC1)c1ccccn1 | – | inconclusive: 7.92 µM [inhibitor, partial curve]
31 | CN(CCOc1ccccc1)CC(=O)Nc1ccc(Cl)c(S(=O)(=O)N(C)C)c1 | – | active: 15.8 µM
32 | Cc1ccc(C(=O)c2coc3cc([N+](=O)[O-])c(O)c([N+](=O)[O-])c23)cc1 | – | inconclusive: 12.6 µM [inhibitor, partial curve]
33 | NNC(=S)NC1CCS(=O)(=O)C1 (stereo not given) | – | active: 17.7 µM
34 | CCN(CC)S(=O)(=O)c1cccc(C(=O)N/N=C(\C)c2ccc(O)cc2O)c1 | – | inconclusive: 22.3 µM [activator, partial curve]
35 | O=C1Nc2ccc(Br)cc2C1=Nc1cccnc1 | – | inconclusive: 17.7 µM [inhibitor, single point]
36 | O=C(O)c1nn(-c2cccc(Cl)c2)c(=O)cc1O | – | inconclusive: 17.7 µM [inhibitor, single point]
37 | O=C(CCCn1c(SCC(=O)c2ccc(O)c(O)c2)nc2ccccc2c1=O)NCC1CCCO1 (stereo not given) | – | inconclusive: 4.46 µM [inhibitor, partial curve]
38 | CN(N)C(=S)Nc1ccc(Cl)cc1 | – | inconclusive: 19.9 µM [inhibitor, single point]
39 | Cc1cccc(C)c1OCCCn1ccnc1 | – | active: 22.4 µM
40 | O=C(NCCc1ccc(F)cc1)Nc1ccccc1 | inactive: 11.3% | –
41 | COc1ccc(NS(=O)(=O)c2ccc(I)cc2)cc1N1CCN(C)CC1 | inactive: -3.33% | –
42 | S=c1[nH]nc(COc2ccc(Cl)cc2)n1-c1ccccc1 | inactive: 16.5% | –
43 | COc1cc(CNCc2ccccc2C(F)(F)F)cc(OC)c1 | – | inconclusive: 19.9 µM [inhibitor, partial curve]
44 | C[C@@]12CCC(O)C[C@H]1CCc1ccccc12 (stereo not given in full) | – | inconclusive: 19.9 µM [inhibitor, partial curve]
45 | CCOc1ccc(/C=N/NS(=O)(=O)c2ccc(C)cc2)cc1OC | – | inconclusive: 25.1 µM [inhibitor, single point]
46 | Cc1ccc(Cl)c2c1=NC(=O)C=2c1[nH]c(=S)[nH]c1O | – | inconclusive: 17.7 µM [inhibitor, partial curve]
47 | CN(C)CCN(C(=O)COc1ccc(Cl)cc1)c1nc2cc3c(cc2s1)OCO3 | inactive: -20.7% | –
48 | CCN(CC)S(=O)(=O)c1ccc(C(=O)NC(=S)N(CCO)Cc2ccccc2)cc1 | – | inconclusive: 35.5 µM [inhibitor, single point]

Row | Structure (SMILES) | activity, negative = inhibition | Potency
49 | COc1ccc(OC)c([N+](=O)[O-])c1C(N)=O | – | inconclusive: 14.1 µM [inhibitor, partial curve]
50 | COc1cccc2c1C(=O)c1c(O)c3c(c(O)c1C2=O)C[C@@](O)(C(C)=O)C[C@@H]3O[C@H]1C[C@H](N)[C@H](O)[C@H](C)O1 | – | inconclusive: 22.3 µM [inhibitor, partial curve] and inconclusive: 14.1 µM [inhibitor, partial curve] and inconclusive: 12.6 µM [inhibitor, partial curve]
51 | CC(/C=C/c1ccccc1)=N\NC(=O)c1ccncc1 | – | inconclusive: 17.7 µM [inhibitor, partial curve]
52 | COc1cc(-c2noc(-c3ccccc3C(=O)NCc3ccco3)n2)cc(OC)c1OC | inactive: 1.12% | –
53 | CCN(CC)c1ccc(/C=N/n2c(=S)[nH]nc(C)c2=O)cc1 | – | inconclusive: 15.8 µM [inhibitor, single point]
54 | CCC(Oc1ccc2c(c1)C(=O)CC(C)(C)O2)C(=O)NCCN1CCCCCC1 (stereo not given) | – | inconclusive: 15.8 µM [inhibitor, partial curve]
55 | CCOC(=O)C1CCN(Cc2c(F)cccc2Cl)CC1 | inactive: -29.5% | –
56 | CN(CCOc1ccc(Cl)c(Cl)c1)Cc1ccccc1 | – | inconclusive: 20 µM [inhibitor, partial curve]
57 | Cc1ccc2nc(SCC(=O)c3ccc4c(c3)NC(=O)CO4)[nH]c2c1 | inactive: -0.479% | –
58 | Cc1ccc(-n2nc(C)c3c(C)c(CCC(=O)Nc4ccc(CN5CCCC5)cc4)c(C)nc32)cc1 | – | inconclusive: 17.7 µM [inhibitor, single point]
59 | O=C(Nc1cccc(C(=O)Nc2ccc(S(=O)(=O)O)c3cc(S(=O)(=O)O)cc(S(=O)(=O)O)c23)c1)Nc1cccc(C(=O)Nc2ccc(S(=O)(=O)O)c3cc(S(=O)(=O)O)cc(S(=O)(=O)O)c23)c1 | – | inconclusive: 19.9 µM [activator, partial curve]
60 | COc1ccc(-c2noc(CSc3nc(N)cc(=O)[nH]3)n2)cc1 | inactive: 1.07% | –
61 | COc1ccc(N2CCN(c3nc4cc(C)ccc4cc3C=O)CC2)cc1 | inactive: 4.6% | –
62 | COc1ccc(CN(C)Cc2c(O)ccc3cc(Br)ccc23)cc1OC | inactive: -10.5% | –
63 | C/C=C/c1ccc(OCCCCN2CCC(C)CC2)c(OC)c1 | – | inconclusive: 19.9 µM [inhibitor, partial curve]
64 | Cc1nc(NC(=O)CN2CCOCC2)sc1C(=O)N(C)C | – | inconclusive: 8.91 µM [inhibitor, partial curve]
65 | COc1ccc(OC)c(N2C(=O)NC(=O)/C(=C/c3ccc([N+](=O)[O-])s3)C2=O)c1 | – | active: 12.6 µM
66 | CCN(C(=O)COc1cccc2cccnc12)C1CCS(=O)(=O)C1 (stereo not given) | – | inconclusive: 15.8 µM [inhibitor, partial curve]
67 | O=C(NC(=S)Nc1cccc(NC(=S)NC(=O)c2ccco2)n1)c1ccco1 | – | inconclusive: 2.51 µM [inhibitor, full curve, poor fit]
68 | CC1=CC(C)(C)Nc2ccc(OC(=O)CN3C(=O)CCC3=O)cc21 | – | inconclusive: 12.6 µM [inhibitor, partial curve]
69 | Oc1cccc(/C=C/c2ccc3cccc(O)c3n2)c1 | inconclusive: 48.7% [activator] | –
70 | CCOCC(=O)Nc1nnc(C)s1 | – | inconclusive: 22.4 µM [inhibitor, partial curve]
